Here are results for 12 compounds from patent US7517874B2 (priority 2007, dated 2009).

The structures appear in SMILES notation. pEC50: −log10 of the molar value.

For the first assay, the target named is human CB2 receptor (hCB2) (Homo sapiens, UniProt P34972). Briefly: cell-based. The format is cell-based.
human CB2 receptor (hCB2), sequence (P34972 whole entry): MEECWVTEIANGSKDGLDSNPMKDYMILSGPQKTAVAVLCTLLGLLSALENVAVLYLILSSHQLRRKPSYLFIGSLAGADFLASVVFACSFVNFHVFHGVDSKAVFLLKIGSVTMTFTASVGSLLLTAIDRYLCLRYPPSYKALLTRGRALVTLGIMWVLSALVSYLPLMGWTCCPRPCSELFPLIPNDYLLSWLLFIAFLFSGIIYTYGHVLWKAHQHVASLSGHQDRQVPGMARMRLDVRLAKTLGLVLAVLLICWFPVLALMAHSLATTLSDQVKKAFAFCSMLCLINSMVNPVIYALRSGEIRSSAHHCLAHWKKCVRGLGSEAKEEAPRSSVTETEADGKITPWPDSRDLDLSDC
Conditions: not given
In general, pEC50 refers to −log10 of the EC50, conventionally taken in molar units. Low values mean a large EC50, high ones a small EC50. As for `CNC(=O)[C@@H](NC(=O)c1nc(-c2ccccc2)n2c1C[N+](C)(C)CCC2)C(C)(C)C` [Compound 481, (S)-1-(3,3-dimethyl-1-(methylamino)-1-oxobutan-2-ylcarbamoyl)-8,8-dimethyl-3-phenyl-6,7,8,9-tetrahydro-5H-imidazo[1,5-a][1,4]diazepin-8-ium], the pEC50 was < 5.00. Consider `CNC(=O)[C@@H](NC(=O)c1nc(-c2ccccc2-c2ccccc2)n2c1CN(C)CCC2)C(C)(C)C` [Compound 413, (S)-3-(biphenyl-2-yl)-N-(3,3-dimethyl-1-(methylamino)-1-oxobutan-2-yl)-8-methyl-6,7,8,9-tetrahydro-5H-imidazo[1,5-a][1,4]diazepine-1-carboxamide], for which the pEC50 was < 5.00. For `CNC(=O)[C@H](CC(C)(C)C)NC(=O)c1nc(-c2ccc(Cl)c(F)c2)n2c1CN(C)CCC2` [Compound 550, (S)-3-(4-chloro-3-fluorophenyl)-N-(4,4-dimethyl-1-(methylamino)-1-oxopentan-2-yl)-8-methyl-6,7,8,9-tetrahydro-5H-imidazo[1,5-a][1,4]diazepine-1-carboxamide], the pEC50 is < 5.00. For the compound `CNC(=O)[C@@H](NC(=O)c1nc(-c2ccccc2)n2c1CN(Cc1cccnc1)CC2)C(C)(C)C` [Compound 63, (S)-N-(3,3-dimethyl-1-(methylamino)-1-oxobutan-2-yl)-3-phenyl-7-(pyridin-3-ylmethyl)-5,6,7,8-tetrahydroimidazo[1,5-a]pyrazine-1-carboxamide], the pEC50 was < 5.00. Consider `CNC(=O)[C@@H](NC(=O)c1nc(-c2ccc(-n3cccn3)cc2)n2c1CN(C)CCC2)C(C)(C)C` [Compound 390, (S)-3-(4-(1H-pyrazol-1-yl)phenyl)-N-(3,3-dimethyl-1-(methylamino)-1-oxobutan-2-yl)-8-methyl-6,7,8,9-tetrahydro-5H-imidazo[1,5-a][1,4]diazepine-1-carboxamide], for which the negative-log EC50 (pEC50) is < 5.00.

The assay is the same for the next values; noted with them: agonist or inverse agonist at hCB2.
Take `CNC(=O)[C@@H](NC(=O)c1nc(-c2cccnc2)n2c1CN(C)CCC2)C(C)(C)C` [Compound 348, (S)-N-(3,3-dimethyl-1-(methylamino)-1-oxobutan-2-yl)-8-methyl-3-(pyridin-3-yl)-6,7,8,9-tetrahydro-5H-imidazo[1,5-a][1,4]diazepine-1-carboxamide]: the “+/− HCB2” value was “+”. Regarding `CNC(=O)[C@@H](NC(=O)c1nc(/C=C/CC2CCCC2)n2c1CN(C)CCC2)C(C)(C)C` [Compound 445, (S,E)-3-(3-cyclopentylprop-1-enyl)-N-(3,3-dimethyl-1-(methylamino)-1-oxobutan-2-yl)-8-methyl-6,7,8,9-tetrahydro-5H-imidazo[1,5-a][1,4]diazepine-1-carboxamide], the “+/− HCB2” value was “−”.

In the case of `CNC(=O)[C@@H](NC(=O)c1nc(-c2ccccc2Cl)n2c1CNCC2)C(C)(C)C` [Compound 10, (S)-3-(2-chlorophenyl)-N-(3,3-dimethyl-1-(methylamino)-1-oxobutan-2-yl)-5,6,7,8-tetrahydroimidazo[1,5-a]pyrazine-1-carboxamide], the “+/− HCB2” value was “+”. As to `CNC(=O)[C@@H](NC(=O)c1nc(CCCN2CCCCC2)n2c1CN(C)CCC2)C(C)(C)C` [Compound 501, (S)-N-(3,3-dimethyl-1-(methylamino)-1-oxobutan-2-yl)-8-methyl-3-(3-(piperidin-1-yl)propyl)-6,7,8,9-tetrahydro-5H-imidazo[1,5-a][1,4]diazepine-1-carboxamide], the “+/− HCB2” value is “+”. Turning to `CNC(=O)[C@@H](NC(=O)c1nc(/C=C/C2CCCCC2)n2c1CN(C)CCC2)C(C)(C)C` [Compound 439], the “+/− HCB2” value is given as “+”.

Staying with this assay, now noted: groups >100 nM-10 μM and >10 μM; cAMP, CHO-K1 hCB2; read-out: EC50 HCB2.
The EC50 is the concentration that produces a half-maximal response. With `O=C(Nc1ccccc1)c1nc(-c2ccccc2)n2c1CN(C(=O)C1CC1)CC2` [Compound 129, 7-(cyclopropanecarbonyl)-N,3-diphenyl-5,6,7,8-tetrahydroimidazo[1,5-a]pyrazine-1-carboxamide], the half-maximal effective concentration (EC50) was > 10000 nM. With `CN1CCn2c(-c3ccccc3)nc(C(=O)CC(C)(C)C)c2C1` [Compound 292, 3,3-dimethyl-1-(7-methyl-3-phenyl-5,6,7,8-tetrahydroimidazo[1,5-a]pyrazin-1-yl)butan-1-one], the EC50 is > 10000 nM.
